Reference: PubChem BioAssay AID324 (DTP/NCI, 2004)
Inconclusive results and toxic doses are left out. Certain results were filed several times, with different values. This list holds those alone. The source may hold further records. The records of an entry differ for a reason that is not stated; they may come from other doses, times, organisms or constructs than stated.

Test system: CD2F1 mice, AMSA-resistant P388 leukemia ip, median survival T/C
Assay: NCI In Vivo Anticancer Drug Screen. Data for tumor model P388 Leukemia resistant to AMSA; NSC 249992 (intraperitoneal) in CD2F1 (CDF1) mice
Conditions: endpoint: median survival time; dose: 2.16 mg/kg/injection; schedule: Q04DX003 (ip); vehicle: saline; higher = longer survival
Method: The antitumor activity of compounds was measured in mice bearing transplantable tumors. Survival or tumor size were measured and the results are expressed as the measurement made in the treated group (T) divided by the measurement made in the vehicle treated control group (C). The tumor model used in this assay is P388 Leukemia resistant to AMSA; NSC 249992 (intraperitoneal) in CD2F1 (CDF1) mice

SMILES: O=C1c2c(O)ccc(O)c2C(=O)c2c(NCCNCCO)ccc(NCCNCCO)c21
- T/C: 124 % of control and 151 % of control
